We go through 109 sequences from article PMC10668032.

The list shows a part of the results. At the low end of the ranking the order means little.

For this assay, the target named is SIX1 homeodomain (reference allele) (UniProt Q15475). Nature of the assay: universal protein binding microarray. The following applies: Universal all-10-mer PBM (8x60K, AMADID 030236), 300 nM GST-tagged protein, Alexa Fluor 488 anti-GST; buffer, salt, pH and temperature not stated; high values mean tight binding; most listed sequences are background and not binding sites; double strand, one strand shown.
GATAACCC: the binding signal was 0.22 E-score. For ATGTAATG the value was 0.018 E-score; for GACCGGTA, -0.0336 E-score. As for AGGTTGGA, the binding signal is -0.0662 E-score. With ACCGTCGG, the binding signal is -0.0916 E-score. Regarding AGACACAT, the binding signal came out at 0.102 E-score. As to GTATGGCA, the binding signal is -0.105 E-score. The value for GACTTTGC was -0.248 E-score. For CTGCACAG the value was -0.0147 E-score; for GACACATA, 0.129 E-score. The value for AAGCGGTG was -0.0255 E-score; that for CCATGCCG was -0.0631 E-score; that for CCCAGAGC was -0.195 E-score. As for AAGGAAAA, the binding signal was -0.283 E-score.

As for CCCACTAA, the binding signal was found to be 0.0575 E-score. GCTATGCA: the binding signal was -0.137 E-score. For GATGTCGC the value was -0.229 E-score; for GCCAAGGC, -0.136 E-score; for ATTGTGAC, 0.142 E-score.

Consider CATAAACG, for which the binding signal is 0.0571 E-score. The value for ACCTCTAC was 0.0436 E-score; that for CCTATCAA was 0.288 E-score; that for ACAAATAA was -0.0818 E-score. For CGTGGCAC the value was -0.237 E-score; for CTACTCCA, 0.131 E-score. The value for GGGTCAAC was 0.035 E-score; that for CGACGAGC was -0.025 E-score. As to AAGAGCTT, the binding signal is -0.15 E-score.

For the sequence ATGTCTAC, the binding signal was -0.0119 E-score. The value for CCCGCCAG was 0.0813 E-score; that for CATATCTC was 0.342 E-score; that for AGCACCCA was -0.0303 E-score. As for AGCGCGCG, the binding signal was -0.288 E-score. For CTCTGGCC, the binding signal was -0.041 E-score. The value for GACTGATA was 0.4 E-score.

As for TCGCGAAA, the binding signal is -0.0284 E-score. For GGACCATA the value was -0.043 E-score; for AAATACTG, 0.0394 E-score; for ATAGGCAC, 0.0509 E-score.

In the case of CTCTGTTC, the binding signal is -0.141 E-score. As for ACGAAACT, the binding signal is 0.0396 E-score. As to AGGCTATG, the binding signal was -0.0535 E-score. ACCACTCT: the binding signal was -0.149 E-score.

As for GCATCCCA, the binding signal is -0.0537 E-score. Take GGCGCTAA: the binding signal is -0.251 E-score. On to GCCGCCCC, for which the binding signal was 0.0111 E-score. Consider CAAAAGGC, for which the binding signal is -0.251 E-score. For AGCCCAGG the value was -0.207 E-score; for AGAGCCAC, -0.0865 E-score.

CGAGGTTA: the binding signal is -0.017 E-score. For AGGGTCTC the value was -0.135 E-score; for ATGTCCCG, -0.151 E-score; for ATGTATTC, -0.0782 E-score.

Take GTATTGTA: the binding signal is 0.272 E-score. On to AAGGACCC, for which the binding signal is -0.0989 E-score. The value for AAAGGGCT was -0.314 E-score. As to ATGATTTA, the binding signal was -0.0781 E-score. As to ACCGAAAA, the binding signal is -0.168 E-score.

As for ACCCCTCT, the binding signal worked out at 0.236 E-score.

As for CACGCATC, the binding signal worked out at 0.107 E-score.

In the case of AGCTACCT, the binding signal is -0.00585 E-score. For CTACGAAG, the binding signal is -0.121 E-score.

As to AAATTATC, the binding signal came out at 0.044 E-score. Turning to CTGTTGTC, the binding signal was -0.221 E-score. For CTTGGTCC the value was -0.253 E-score.

Consider ACCCGCTC, for which the binding signal was found to be 0.077 E-score. On to GGCGAACA, for which the binding signal was -0.0372 E-score.

For the sequence ACATCACT, the binding signal was -0.0435 E-score.

Regarding CTTTGCAC, the binding signal was -0.131 E-score. Regarding ACAGAGAA, the binding signal is -0.0446 E-score.

For ATTTAGGG, the binding signal is -0.0266 E-score. In the case of CAAGCATC, the binding signal was -0.0145 E-score. CTGTGTCC: the binding signal is -0.242 E-score.

As for TAATCGCA, the binding signal is 0.0413 E-score. For ACATACGA the value was -0.0616 E-score; for ATGTAACA, 0.00835 E-score. The value for TCCCTCGA was 0.0166 E-score; that for AGGCATAT was 0.308 E-score; that for CTCAATCC was 0.0141 E-score.

As for GAGGGTGC, the binding signal was -0.196 E-score. As to ACATTAAG, the binding signal was -0.051 E-score. The value for CTACATAG was -0.0401 E-score; that for TGATGCAA was -0.0104 E-score; that for AACTGAAG was -0.0689 E-score. For ACCTTGAG the value was 0.0283 E-score; for AGGGTTGC, -0.274 E-score; for GGCCCACC, -0.125 E-score. The value for CCGGGCTC was -0.0408 E-score.

With CGGATTCC, the binding signal amounted to 0.247 E-score. For CTTCTCCA the value was -0.0323 E-score; for AACGACTC, -0.289 E-score. With CATCGCCG, the binding signal was -0.0138 E-score.

For the sequence AACTAATA, the binding signal was 0.124 E-score. In the case of CGATGGAA, the binding signal was -0.251 E-score. For TCCGGGCA the value was -0.0183 E-score; for ATAGAGTG, 0.021 E-score; for CCTGCAAC, -0.112 E-score. The value for ACAGACGA was 0.00351 E-score.

For GATATGCC, the binding signal was 0.427 E-score. The value for AGAAATTC was -0.0826 E-score; that for ATTATCGG was 0.24 E-score. Consider AAACCACA, for which the binding signal was -0.0104 E-score. For ACTTAGAG, the binding signal was -0.056 E-score. Regarding ATAATCGA, the binding signal stood at 0.123 E-score.

In the case of ATAGACAA, the binding signal was determined as 0.0646 E-score. For the sequence AATGTGGA, the binding signal was -0.0229 E-score. The value for AAAGGGCA was 0.0669 E-score. For CCTCCGTC the value was 0.00335 E-score; for AGTGCTCC, -0.207 E-score.
